The test addresses Wild type GPIbα (amino acids H1 - E285) (UniProt P07359 17-301). As to the kind of experiment: SPR. A general note: In SPR one partner is held on a chip, and binding of the other changes the refractive index at the surface.
Chain of UniProt P07359 (P07359 17-301): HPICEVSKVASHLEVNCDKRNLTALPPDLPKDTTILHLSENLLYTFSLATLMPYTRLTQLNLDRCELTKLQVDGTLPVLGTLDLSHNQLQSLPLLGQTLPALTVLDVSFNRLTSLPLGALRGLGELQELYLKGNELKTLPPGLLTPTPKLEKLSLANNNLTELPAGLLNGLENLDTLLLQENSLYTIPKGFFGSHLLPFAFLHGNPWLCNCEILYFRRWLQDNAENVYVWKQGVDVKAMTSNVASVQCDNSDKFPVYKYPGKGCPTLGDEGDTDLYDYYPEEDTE

B1: wild-type nonglycosylated A1 domain of VWF ([…]) (domain or fragment)
chain: not shown
With B1, the affinity, expressed as Kd, was 3.9 ± 0.1 µM.

Usually Kd stands for the concentration at which binding is half-saturated. Higher therefore signals weaker binding.

Source of the values: publication PMC6940534 (Journal of thrombosis and haemostasis : JTH, 2019).
